Sequences with one replicate were seen in a single cluster, so their values are uncertain.
Test system: ATP
Test: switch fluorescence ratio, 500 uM ATP over buffer (Cy3 cluster intensity, sum of 5 cycles each) (fold (ratio)); higher = stronger signal-on switching upon ATP binding; sequences stand for … in TCGTCGGCAGCGTCAGATGTGTATAAGAGACAGTTTTTTTTTTTTTTTTTTTTTTTTT…TC
Conditions: aptamer strand: ATP DNA aptamer (quencher-CACCTGGGGGAGTATTGCGGAGGAAGG + anchor), 100 nM annealed; ATP concentration: 500 uM; one replicate
In short: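 Per cluster, summed Cy3 intensity from the target cycles was divided by that from the buffer cycles to give the fluorescence ratio, then averaged per switch-domain sequence. Clusters outside 100-1000 RFU were excluded. The Cy3-labelled switching-strand clusters, on a modified Illumina MiSeq flow-cell, were annealed to 100 nM quencher-labelled ATP aptamer and imaged in selection buffer, then after 15 min with 500 uM ATP at 22 °C, for five cycles with NaOH stripping and re-annealing between them.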
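Also: ATP exposure 15 min at 22 °C before imaging.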

Row | Sequence | switch fluorescence ratio
1 | CTCGACAGTA | 1.02
2 | CTCTCCTAGG | 3.99
3 | CATGGTATCC | 0.993
4 | AAGTGTTAGG | 1.22
5 | TTTCGACGGG | 1
6 | AGGGATTTGA | 0.944
7 | CCTGGTAGTA | 1.04
8 | AAGGTCATAC | 1.1
9 | TTTAATTAAA | 0.995
10 | CCCATAACT | 1.05
11 | GTAATCAGTG | 0.971
12 | ATGAAGCACG | 1.08
13 | CCAGCATCGT | 1.02
14 | ATGGATGTCT | 1.02
15 | GTTGTAATTG | 0.94
16 | GGGGCGCAAT | 2.45
17 | TCGCTGAGAG | 1.08
18 | TAGTACCCGA | 0.967
19 | TTTTTATACA | 0.98
20 | GGTAGATAGA | 0.99
21 | GTTATCTCAG | 0.97
22 | ACGTGATTAG | 1.04
23 | CTCTGGACCT | 1.35

Row | Sequence | switch fluorescence ratio
24 | ATTACAATTT | 0.97
25 | CAATCAGACG | 1.08
26 | AACGGCATTA | 1.1
27 | GCAAAGGTAG | 1.02
28 | GAAAGGCAAC | 1.06
29 | GATATTCAAA | 1.03
30 | AGTGTAAT | 1.04
31 | TGTCCACCGC | 2.41
32 | TGGAAGCGGT | 0.981
33 | TTATAACATA | 1.04
34 | GAAGCTCAAT | 1.06
35 | TATATAGTTT | 1.02
36 | AGCACCGGCA | 1.05
37 | TCGACAGAG | 0.956
38 | GTAGGCCGCA | 1.01
39 | CCACTGGGAA | 1.12
40 | AAGGAGTCTG | 0.967
41 | ACCGGTGAGG | 0.969
42 | GGTGAGCTTT | 0.954
43 | ACTAGGGCAT | 1.03
44 | CAGTGCTTGG | 1.01
45 | GCCATGTGCT | 0.984
46 | GATTAGGGGC | 0.946

Row | Sequence | switch fluorescence ratio
47 | CCTATTCTTC | 0.983
48 | ATACAGCATA | 1.12
49 | GGCGTGTCTG | 0.973
50 | CGCGTGCTCC | 2.18
51 | AATAAACGGC | 1.05
52 | GGGCCAAATC | 1
53 | ATGGGCATCA | 0.963
54 | GAATATGGTA | 0.997
55 | GCCTTATTCG | 1.03
56 | GGACTATCAG | 1
57 | CCCGTGGATG | 1.02
58 | GGAGTGTGAG | 1.01
59 | CTTGTGATA | 1.04
60 | GCTAAACCCG | 1.03
61 | AATAGGGGCC | 0.991
62 | TAGATGGTAC | 1.03
63 | AATTGGCAAA | 1.03
64 | TACGAAAGTA | 0.991
65 | GATCAAACCC | 0.984
66 | TTTGGTAGAT | 1
67 | CAAGGCCCGA | 1.06
68 | GGCATCGTCT | 0.972
69 | GTCTTTTCAG | 0.973

Row | Sequence | switch fluorescence ratio
70 | AAGTCAGTAT | 0.968
71 | AGATGTTCTC | 0.959
72 | GGGAAGATGG | 0.974
73 | TCGGAGGACT | 0.967
74 | GATTGCTGTA | 0.981
75 | GAATTTACGT | 1.02
76 | GACGACCCTT | 1.43
77 | AAATACCTCG | 1.07
78 | TAACTCCAGA | 0.987
79 | CCAAACTACG | 1.1
80 | AATCAGATCA | 0.971
81 | TTGATATAC | 1.17
82 | CTAACCTGAG | 1.83
83 | TCGTTAAGTT | 1
84 | ACACAATTTC | 1.06
85 | TTTCATTCTG | 0.993
86 | AACAATCGCG | 0.965
87 | GCCGCGCCAA | 1.03
88 | GGGGGTGATA | 0.998
89 | GCGTCGGCCC | 1
90 | TGTAAATGAC | 1.02
91 | GGACAGAGAC | 1.07
92 | ACTCATGCGG | 1.16

Row | Sequence | switch fluorescence ratio
93 | TGACGTCCTT | 1.03
94 | GGTAATTTAC | 1.03
95 | ATCAATCAAT | 1.01
96 | GATCGTTATG | 1.01
97 | CTAACATCCC | 1.02
98 | ATGGATGTTT | 0.982
99 | CTTTATGAGG | 1.02
100 | CATGTTTGAA | 1.01
101 | GTTTCCGTAC | 1.04
102 | CTTGAAGCTG | 0.945
103 | AGGCGCAGTT | 1.03
104 | AAAGCTTAGC | 0.938
105 | CCCGTCAAAA | 1.32
106 | CTTAGTCTGC | 1.01
107 | AGGGCTCGAG | 1
108 | TCGGCAACTA | 1.33
109 | AACTGCATGG | 1.06
110 | CGAGACACG | 1.14
111 | TGTGGTAGG | 1.05
112 | ACAGGCAAAA | 0.984
113 | TAACCTTAAT | 1.08
114 | TTGGGCAAAC | 1.01
115 | AGTATTTCCT | 1.06

Row | Sequence | switch fluorescence ratio
116 | ACTAAGGTAC | 1.12
117 | AAGGGGCGTC | 1.04
118 | CAGCAAATAG | 1.19
119 | GCGTAATCAA | 0.992
120 | GGCCGTAGGT | 1.04
121 | GGGTCCCATC | 1.06
122 | AACTGTGAAC | 1.01
123 | GGAATTTGTC | 0.947
124 | GGTTAGTTAG | 1.02
125 | GGCTTGAAGA | 0.982
126 | TGCTGTGATG | 0.944
127 | AGTTGGCGTG | 1.01
128 | TTGCTGTAT | 0.998
129 | TTATCGCATG | 1.36
130 | GCACGGGGTG | 0.985
131 | AAAGCCGAGC | 1.02
132 | ATGAGTGAGT | 0.987
133 | TTTATGATCT | 1.02
134 | GGAGTAGTAG | 1.08
135 | GCGTCACTTG | 0.989
136 | ATCGTGAGGT | 1.04
137 | GCTAAATACC | 1.11
138 | CATTAGAATT | 0.996

Row | Sequence | switch fluorescence ratio
139 | ACGCTCATTC | 1.29
140 | CATACTTCGC | 1.32
141 | ACTGTGATTC | 1.05
142 | TCCCTGTGGC | 0.983
143 | GGGTTTTCGC | 0.976
144 | AGAGAGGATG | 1
145 | TCAGTGGTAT | 0.955
146 | GCTTGGCAGA | 1
147 | AAGTTCACTT | 1.03
148 | GCCGGGAACT | 1.02
149 | TGCCTCATTC | 1.05
150 | ATGATCGCTG | 1.02
151 | AAATTAGAG | 0.996
152 | TTTTCACTTA | 1.05
153 | ATGCGTCTTT | 0.984
154 | AAAATATTGC | 0.944
155 | ATTCCAGTGT | 1.02
156 | GGCGGGGATC | 1.03
157 | CGCTAATCAT | 1.02
